The values below come from the RNAGym collection of RNA variant scans (doi:10.7554/elife.90254).

Read counts are not given, so values of variants with three or more changes are uncertain.

The chains are these.
B1: LINE1-mini (parent)
chain: GGCAGAGCUCAACACAGCGUGGCAAAGUGGCUGUGGCUAGACUGCC

In the data set the parent is B1. Kind of data set: self-cleavage, relative activity (ratio to wild type); higher = more cleavage; in vitro, sequencing; the parent is a self-cleaving ribozyme.
Take GGCAGAGCUCAACACAGCGUCGCAAAGUGGCUGUGGUUUAACUGCG [G21C C37U A39U G40A C46G]: the self-cleavage stood at 0.

GGGAGAGCUCAACACAGCGUGGGUAAGUGGCUGUGGCUAGACUGCC [C3G C23G A24U]: the self-cleavage is 0.41.

On to GACAGAGCUCAACACAGCGUGGCAAAGUUGCUGUGGCUGGACUGCC [G2A G29U A39G], for which the self-cleavage came to 0.39.

For GGUAGAGCUCUACACAGCGCGGCAAAGUGGCUGUGGCUAGACUGCC [C3U A11U U20C], the self-cleavage worked out at 0.06.

As for GGCAGAGCUCAACACAGCGGGGAAAAGUGGCUGUGGCCAGACUGCC [U20G C23A U38C], the self-cleavage worked out at 0.19.

GACAGAGCUCAACACAGCGUGGCAAAGUGGCAGUGGCUAUAGUGCG [G2A U32A G40U C42G C46G]: the self-cleavage came to 0.09.

With GGCAGAGCUCAACACAGCGUGGCAAAGAGGAUGUGGUUAGACUCCC [U28A C31A C37U G44C], the self-cleavage is 0.07.

Take GGCAGAGGUCCACACAGCGUGGCAAAAUGGCUGUGGCUAGACCGCC [C8G A11C G27A U43C]: the self-cleavage was 0.02.

As for GUCAGAGCUCAACACAGCGUGGCAAAGUGGCUGUGGCUCGACAGCC [G2U A39C U43A], the self-cleavage was 0.02.

GGCAGAGCACGACAUAGCGUGGCAAAGUGGCGGUGGCUAGGCUGCC [U9A A11G C15U U32G A41G]: the self-cleavage is 0.

Regarding GGCAGACCUUAACACAGCGUGGCAAAGUGGCUGUGGCUAGGAUGCC [G7C C10U A41G C42A], the self-cleavage came out at 0.02.

As for UGCAGAGCUCAACACUGCGUGGCAAAGUGGCUGGGGAUAGACUGCC [G1U A16U U34G C37A], the self-cleavage was found to be 0.02.

For the variant GGCAGAGCUCAACACAGCCUGGCAAAGUGGCUGUGACGAGACUGCC [G19C G36A U38G], the self-cleavage was determined as 0.02.

In the case of GGCAGAGCUCAAUACAGCGUGGCAAAGUGGCUAUUUCUAGACUGCC [C13U G33A G35U G36U], the self-cleavage is 0.01.

On to GGCAGAGCUCAAAACGGCGUGGCUAAGUGGCCGUGGCUAGACUGCC [C13A A16G A24U U32C], for which the self-cleavage came out at 0.

On to GGCUGAGCUAAACACAGCGUGGCAAUGUGGCUGUGGCUCGACUGCC [A4U C10A A26U A39C], for which the self-cleavage was 0.01.

Take GGCAGAGGACAACACAGCGUGGCAAAGUGGCUGAGCCUAGACUGGC [C8G U9A U34A G36C C45G]: the self-cleavage turned out to be 0.08.

Take GGCAGAGCUCAACACACCGUGGCAAAGUUGAUAUGGCUAGACUGCC [G17C G29U C31A G33A]: the self-cleavage amounted to 0.14.

Regarding GUUAGAGCUGAACACAGCGUGGCAAAGUGGCUGUGGCAAGACUGCC [G2U C3U C10G U38A], the self-cleavage was 0.03.

GGCAGAGCUCAACACAGUGUGCCAAAAUGCCUGUGGCUAGACUGCC [C18U G22C G27A G30C]: the self-cleavage came to 1.16.

In the case of GGCAGAUUUCAACACAGCGUGGCAAAGGCGCUGUGGCUAGACUGCC [G7U C8U U28G G29C], the self-cleavage was 0.04.

Take GGCAAAGCUCAACACAGCGUGGCAAAGUCGCUGUGGCUAGACUCCC [G5A G29C G44C]: the self-cleavage was 0.03.

In the case of GGCAGAGCUCAACACAGCGUGGCCAAGUGGCUGUGGGUAGACUGCA [A24C C37G C46A], the self-cleavage stood at 0.02.

As for GGCAGAGCUCAAUACAGCGUCGCAAAGAUGCUGUGGCUAGACUGCC [C13U G21C U28A G29U], the self-cleavage came out at 0.03.

As to GGCAUAGCCCAACACAGCGUGGCAAAGUGGCUGUGGCUAGACUGCU [G5U U9C C46U], the self-cleavage was found to be 0.03.

CGCAGAGCUUAACACAGCGUUGCAAAGUGGCUGUGGCUAGUAUGCC [G1C C10U G21U A41U C42A]: the self-cleavage was determined as 0.02.

For the variant GGCAGAGCUCAACAUAGCGUGGCAAAGAGACUGUGGCUAGACUGCC [C15U U28A G30A], the self-cleavage was found to be 0.21.

Take GGCGGAGCUAAACACAGCUUGGCAAAGUGGCUGUGGCUAGACUGCC [A4G C10A G19U]: the self-cleavage was 0.01.

For the variant GGCAGAGCUCAACACAGCGUGGCAAAGUGGCGGUGGCUAGCAUGCC [U32G A41C C42A], the self-cleavage is 0.07.

With GGUAGAGCUCAACACAGCGUGGUAAAGUGGCUGUGGCUAAACUGCC [C3U C23U G40A], the self-cleavage stood at 0.19.

As for GCCAGAGCUCAACACAGGGUGGCAAAGUGGCUGUGUCUAGACUACC [G2C C18G G36U G44A], the self-cleavage worked out at 0.21.

As for GGCACAGCUCAACACAGCGUGGCAAAGUGGCUCUGGCUAGACAGCC [G5C G33C U43A], the self-cleavage worked out at 0.04.

Take GGCAAAGCUCAACACAUAGUGGCAAAAUGGUUGUGGCUAGACUGCC [G5A G17U C18A G27A C31U]: the self-cleavage worked out at 0.03.

Regarding GGCAGAGCUCAACACAGUGUGGCAAAGUGGCCAUGCCUAGACUGCC [C18U U32C G33A G36C], the self-cleavage was 0.01.

In the case of GCCAGAGCUCCAGACAGCGUGGCAAAGUGGCUGUGGCCAGACUGCC [G2C A11C C13G U38C], the self-cleavage was found to be 0.01.

GGCAGAGCUCAACACAGCGUGCCAAAGUGGCUGUGGCUAUCCUUCC [G22C G40U A41C G44U]: the self-cleavage was found to be 0.04.

For the variant GGCAGAGCUCAACCCAGCGUGGCAAAGUGGCUGAGGCCAGAAUACC [A14C U34A U38C C42A G44A], the self-cleavage came out at 0.11.

As to GACAGAGAUCAACACAGCUUGGCAAAGACGCUGUGGCUAGACUGCC [G2A C8A G19U U28A G29C], the self-cleavage is 0.06.

Turning to GGCACAGCUAAACACAGCGAGGAAAAGUGGCUGUGGCUAGGCUGCC [G5C C10A U20A C23A A41G], the self-cleavage is 0.

As for GGCAGAGCUCAACACAGCGUGGCCAAGUGGCUGUGGCUACACUGCU [A24C G40C C46U], the self-cleavage is 0.02.

As for GGAAGAGCUAAACACAGCGUGGAAAAGUGGCUGAGGCUAGGAUGCC [C3A C10A C23A U34A A41G C42A], the self-cleavage was determined as 0.02.

As for GGAGGAGCUCAACACAGCGUGGCAAAGUGGCUGUGGGUAGACUGCC [C3A A4G C37G], the self-cleavage turned out to be 0.1.

In the case of GGCAGAGCUCAUCACAGCGUAGCAAAUUGGCUGUGGCUAGACUGCC [A12U G21A G27U], the self-cleavage came out at 0.39.

Turning to GGCAGCGCUCAACACAGGGUGUCAAAGUGGCUGUGGCUAGACCGCC [A6C C18G G22U U43C], the self-cleavage was 0.04.

GGUAGAGCUUAACACAGCGUGGCGAAGUAGCUGUGGUUAGACUGCC [C3U C10U A24G G29A C37U]: the self-cleavage was 0.03.

With GGAAGAGCUCAACACAGCGUGGCAAAGUGGCUGUGGCUGGAGUGCC [C3A A39G C42G], the self-cleavage is 0.02.

In the case of GGCAGAGCUGAACAAAGCGUGGCAAAGCGGCUGUGGCUAGACUGAC [C10G C15A U28C C45A], the self-cleavage was found to be 0.01.

With GGCAUAGCUCAACACAUCGUGGCAAAGUUGCUGGGGCUAGACUGCC [G5U G17U G29U U34G], the self-cleavage was determined as 0.11.

Turning to GGAAGCGCUCAACACAGCGUGGCAAAGUGGCUGUGUAUAGACUGCC [C3A A6C G36U C37A], the self-cleavage was 0.22.

On to GGCAGAGCUCAACACAGCCAGGCAAAAUGGCUGUGGCUAGACUGCC [G19C U20A G27A], for which the self-cleavage amounted to 0.37.

For GGCAGAGCUCAACACGGUGUGGCAAAGUGGCGGUGGCUAGACUGCC [A16G C18U U32G], the self-cleavage was 0.03.

On to GGCAGAGCUAAACACAGCGUGGCAAAGGGGCUGUGGCUAGACUGAC [C10A U28G C45A], for which the self-cleavage was 0.01.

Take GGCAGAGCUCACCCCAGCGUGGCAAAGUGGCUGUGGCUAGCCUGCU [A12C A14C A41C C46U]: the self-cleavage worked out at 0.01.

In the case of GGCAGAGCUCAACACAGCGUGGCAAAGGUGCUGCGGCUAGACUGAC [U28G G29U U34C C45A], the self-cleavage is 0.12.

For GGCACAGCUCAACACCGCGUGGCAAAGUUGCUGUGUCUAGACUGCC [G5C A16C G29U G36U], the self-cleavage is 0.08.

As for GGCAGAGCUCCACAAAGUGGGGCAAAGUCGCUGUGGCUAGACUGCC [A11C C15A C18U U20G G29C], the self-cleavage is 0.01.
